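These data come from cells grown in 96-well plates and exposed to compound for 48 hours at five concentrations. GI50 = concentration required for 50% inhibition of growth. TGI is the concentration that stops growth completely.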
System: NCI-H322M lung
Assay: NCI tumour cell line growth inhibition, 48 h

SMILES	GI50 [µM]	TGI [µM]
O=C(Nc1ccc(I)cc1F)c1cc(-c2ccc(F)cc2F)ccc1O	3.6	77.7
CC1=C(COCCOC(=O)c2ccc(S(=O)(=O)F)cc2)C2=C(C)C3(CC3)[C@@](C)(O)C(=O)C2=C1	20.3	53.6
N#C[Se]CC(=O)Nc1cccc(C(F)(F)F)c1	2.61	10.5
O=C(c1ccc(O)cc1)C1[C@H](c2ccccc2Br)[C@@H](c2ccccc2)NC12C(=O)Nc1ccc(Cl)cc12 (stereo not given in full)	5.98	12.5
COc1ccc(-c2nc(S(=O)(=O)c3ccc(C)cc3)c(S(=O)(=O)CC(=O)N(C)Cc3ccccc3)o2)cc1	14	27

Source: PubChem BioAssay (NCI)
